Experimental data as given in the supplement of paper PMC12423691.
Some of the results follow. Binding of human transcription factors and regulators to the viral nucleoprotein by AlphaScreen, crude cell-free proteins, amounts not normalised, one pass. Fold of the Venus control; higher = more signal. No active / inactive call. Single-pass screen; sequences are the whole Swiss-Prot entries looked up by name.

B1: AEBP2, Q6ZN18 (protein)
chain: MAAAITDMADLEELSRLSPLPPGSPGSAARGRAEPPEEEEEEEEEEEEAEAEAVAALLLNGGSGGGGGGGGGGVGGGEAETMSEPSPESASQAGEDEDEEEDDEEEEDESSSSGGGEEESSAESLVGSSGGSSSDETRSLSPGAASSSSGDGDGKEGLEEPKGPRGSQGGGGGGSSSSSVVSSGGDEGYGTGGGGSSATSGGRRGSLEMSSDGEPLSRMDSEDSISSTIMDVDSTISSGRSTPAMMNGQGSTTSSSKNIAYNCCWDQCQACFNSSPDLADHIRSIHVDGQRGGVFVCLWKGCKVYNTPSTSQSWLQRHMLTHSGDKPFKCVVGGCNASFASQGGLARHVPTHFSQQNSSKVSSQPKAKEESPSKAGMNKRRKLKNKRRRSLPRPHDFFDAQTLDAIRHRAICFNLSAHIESLGKGHSVVFHSTVIAKRKEDSGKIKLLLHWMPEDILPDVWVNESERHQLKTKVVHLSKLPKDTALLLDPNIYRTMPQKRLKRTLIRKVFNLYLSKQ
B2: IRF2, P14316 (protein)
chain: MPVERMRMRPWLEEQINSNTIPGLKWLNKEKKIFQIPWMHAARHGWDVEKDAPLFRNWAIHTGKHQPGVDKPDPKTWKANFRCAMNSLPDIEEVKDKSIKKGNNAFRVYRMLPLSERPSKKGKKPKTEKEDKVKHIKQEPVESSLGLSNGVSDLSPEYAVLTSTIKNEVDSTVNIIVVGQSHLDSNIENQEIVTNPPDICQVVEVTTESDEQPVSMSELYPLQISPVSSYAESETTDSVPSDEESAEGRPHWRKRNIEGKQYLSNMGTRGSYLLPGMASFVTSNKPDLQVTIKEESNPVPYNSSWPPFQDLPLSSSMTPASSSSRPDRETRASVIKKTSDITQARVKSC
B3: ZNF215, Q9UL58 (protein)
chain: MQPLSKLMAISKPRNLSLREQREVLRADMSWQQETNPVVETHDSEASRQKFRHFQYLKVSGPHEALSQLWELCLQWLRPEIHTKKQIIELLVLEQFLAILPEEVRTWVNLQHPNNSKDMVTLIEDVIEMLEDEDMPCKDSALQMGSIKEKMKAGSRTGKPQEPVTFKDVVVEFSKEEWGQLDSAVKNLYRNVMLENFRNLNSLRKAHLLSKPFESLKLESKKKRWIMEKEIPRKTIFDMKSISGEESSHGVIMTRLTESGHPSSDAWKGENWLYRNQKKWDINLPQEAFIPETIYTEEEDFECSENKKSFDINSVSSICAIQVGIPSRKGSPKCDKFKTYFKFNLDSVGKQHSEYEYGNDLSLSTDIRHQKSHTTMNSYECYQCGKAFCRSSSLIRHQIIHTGEKPYKCSECGRFFNRRTNLTKHQKLHAEAKACTSNKCGKAFSKSEDSNNPTLHFGNNFYQCVNCGKSFNRSSSLIRHQMIHTGEKPFKCKECSKAFNRSSNLVKHQKLHTRDKS
B4: KLF10, Q13118 (protein)
chain: MLNFGASLQQTAEERMEMISERPKESMYSWNKTAEKSDFEAVEALMSMSCSWKSDFKKYVENRPVTPVSDLSEEENLLPGTPDFHTIPAFCLTPPYSPSDFEPSQVSNLMAPAPSTVHFKSLSDTAKPHIAAPFKEEEKSPVSAPKLPKAQATSVIRHTADAQLCNHQTCPMKAASILNYQNNSFRRRTHLNVEAARKNIPCAAVSPNRSKCERNTVADVDEKASAALYDFSVPSSETVICRSQPAPVSPQQKSVLVSPPAVSAGGVPPMPVICQMVPLPANNPVVTTVVPSTPPSQPPAVCPPVVFMGTQVPKGAVMFVVPQPVVQSSKPPVVSPNGTRLSPIAPAPGFSPSAAKVTPQIDSSRIRSHICSHPGCGKTYFKSSHLKAHTRTHTGEKPFSCSWKGCERRFARSDELSRHRRTHTGEKKFACPMCDRRFMRSDHLTKHARRHLSAKKLPNWQMEVSKLNDIALPPTPAPTQ
B5: ARRB1, P49407 (protein)
chain: MGDKGTRVFKKASPNGKLTVYLGKRDFVDHIDLVDPVDGVVLVDPEYLKERRVYVTLTCAFRYGREDLDVLGLTFRKDLFVANVQSFPPAPEDKKPLTRLQERLIKKLGEHAYPFTFEIPPNLPCSVTLQPGPEDTGKACGVDYEVKAFCAENLEEKIHKRNSVRLVIRKVQYAPERPGPQPTAETTRQFLMSDKPLHLEASLDKEIYYHGEPISVNVHVTNNTNKTVKKIKISVRQYADICLFNTAQYKCPVAMEEADDTVAPSSTFCKVYTLTPFLANNREKRGLALDGKLKHEDTNLASSTLLREGANREILGIIVSYKVKVKLVVSRGGLLGDLASSDVAVELPFTLMHPKPKEEPPHREVPENETPVDTNLIELDTNDDDIVFEDFARQRLKGMKDDKEEEEDGTGSPQLNNR
B6: TNFSF4, P23510 (protein)
chain: MERVQPLEENVGNAARPRFERNKLLLVASVIQGLGLLLCFTYICLHFSALQVSHRYPRIQSIKVQFTEYKKEKGFILTSQKEDEIMKVQNNSVIINCDGFYLISLKGYFSQEVNISLHYQKDEEPLFQLKKVRSVNSLMVASLTYKDKVYLNVTTDNTSLDDFHVNGGELILIHQNPGEFCVL
B7: SPIC, Q8N5J4 (protein)
chain: MTCVEQDKLGQAFEDAFEVLRQHSTGDLQYSPDYRNYLALINHRPHVKGNSSCYGVLPTEEPVYNWRTVINSAADFYFEGNIHQSLQNITENQLVQPTLLQQKGGKGRKKLRLFEYLHESLYNPEMASCIQWVDKTKGIFQFVSKNKEKLAELWGKRKGNRKTMTYQKMARALRNYGRSGEITKIRRKLTYQFSEAILQRLSPSYFLGKEIFYSQCVQPDQEYLSLNNWNANYNYTYANYHELNHHDC
B8: PPARD, Q03181 (protein)
chain: MEQPQEEAPEVREEEEKEEVAEAEGAPELNGGPQHALPSSSYTDLSRSSSPPSLLDQLQMGCDGASCGSLNMECRVCGDKASGFHYGVHACEGCKGFFRRTIRMKLEYEKCERSCKIQKKNRNKCQYCRFQKCLALGMSHNAIRFGRMPEAEKRKLVAGLTANEGSQYNPQVADLKAFSKHIYNAYLKNFNMTKKKARSILTGKASHTAPFVIHDIETLWQAEKGLVWKQLVNGLPPYKEISVHVFYRCQCTTVETVRELTEFAKSIPSFSSLFLNDQVTLLKYGVHEAIFAMLASIVNKDGLLVANGSGFVTREFLRSLRKPFSDIIEPKFEFAVKFNALELDDSDLALFIAAIILCGDRPGLMNVPRVEAIQDTILRALEFHLQANHPDAQYLFPKLLQKMADLRQLVTEHAQMMQRIKKTETETSLHPLLQEIYKDMY

molecular target: nucleoprotein N of Crimean-Congo hemorrhagic fever virus; assay: AlphaScreen luminescence signal relative to Venus negative control (fold); higher = stronger binding to CCHFV N
Procedure: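 AlphaScreen binding of cell-free made, FLAG-GST-tagged human transcription factors and regulators (crude translation products) to biotinylated N protein; signal as fold of the FLAG-GST-Venus control. One pass.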

Binder	AlphaScreen luminescence signal
B1	2.47
B2	3.67
B3	2.05
B4	2.7
B5	2.56
B6	2.6
B7	2.84
B8	1.81
